The record followed here is PubChem BioAssay AID493208 (National Center for Advancing Translational Sciences (NCATS), 2011).

The whole screen tested about 44,000 compounds, of which about 340 (0.77%) were called active. Roughly 5% stayed inconclusive and do not appear here. Calls follow the shape of the dose curve; as a rule, active = well fitted inhibition curve with a large enough effect; inconclusive = small, poorly fitted or top-dose-only effect; inactive = flat fitted curve, though single readings scatter. Some of the results follow.
Potency is read from the fitted curve at half-maximal effect.

A short description of this assay: Acumen qHTS Assay for Inhibitors of the mTORC1 Signaling Pathway in MEF (Tsc2-/-, p53-/-) Cells: Sytravon. Also: nearly all actives have a fitted effect of over 50% in size.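 As to activity change, negative = inhibition: plate controls were DMSO for no effect and rapamycin for full effect.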 Conditions: phospho-rpS6 immunofluorescence/PI, 24 h; series mostly up to 38.3 µM; activity change, negative = inhibition: at the top concentration. Summed up: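 Cell-based qHTS: Tsc2-/- p53-/- MEF, 24 h cpd, 37 °C; fix/perm, anti-phospho-S6 Alexa-488 + PI; Acumen 488 nm scan; pS6/PI ratio, % positive cells; rapamycin 7.5 nM = inhibition ref; PI count = viability.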
On the technique in general: In qHTS, concentration-response curves come from the screen itself.
For the molecule `COc1ccc(CCN2C(=O)N(c3ccc(F)cc3)C(=O)C2CC(=O)Nc2ccc(OC)cc2)cc1` (stereo not drawn), the “activity change, negative = inhibition” value was inactive: -4.94%.

As to `CCOc1ccc(C(=O)NCC(c2ccc3c(c2)OCO3)N2CCN(c3ccc(F)cc3)CC2)cc1` (stereo not drawn), the “activity change, negative = inhibition” value is inactive: 1.87%.

`CC(=O)Nc1ccc(NS(=O)(=O)c2ccc3[nH]c4c(c3c2)CCCCC4)cc1`: the “activity change, negative = inhibition” value was inactive: 5.05%.

In the case of `Cc1ccc(CN2CCN(C3CCN(C(=O)c4ccc(C)cc4)CC3)C(=O)C2=O)cc1`, the “activity change, negative = inhibition” value is inactive: -6.73%.

Take `CC1CCN(Cc2c(O)ccc3c(=O)c(-c4ccc(Cl)cc4)c(C(F)(F)F)oc23)CC1`: the “activity change, negative = inhibition” value was inactive: 1.93%.

In the case of `CC(C)(C)c1cc(C(C)(C)C)c2oc(=O)c(-c3nc4ccc(C(=O)O)cc4[nH]3)cc2c1`, the “activity change, negative = inhibition” value was inactive: -2.4%.

In the case of `COc1cc(OC)c(NC(=O)N2CCN3CCCCC3C2)cc1Cl` (stereo not drawn), the “activity change, negative = inhibition” value is inactive: -2.5%.

Take `CCOC(=O)c1ccccc1NC(=O)CSc1cc(C)[nH]c(=O)n1`: the “activity change, negative = inhibition” value was inactive: 0.0149%.

Turning to `COc1ccc(Cl)cc1NC(=O)CCN1C(=O)c2ccccc2Sc2ncccc21`, the “activity change, negative = inhibition” value is inactive: -7.13%.

In the case of `CC(=O)N1CCc2cc(S(=O)(=O)NC(CC(C)C)C(=O)NCCc3ccccc3)ccc21` (stereo not drawn), the “activity change, negative = inhibition” value was inactive: 5.82%.

Regarding `CC(C)C(=O)N1c2nc(C(C)C)nn2C2(CCCCC2)[C@@H]2CCCC[C@@H]21`, the “activity change, negative = inhibition” value was inactive: -6.38%.

Take `Cc1ccc(Nc2nc3ccccc3c3nnc(C)n23)cc1Cl`: the “activity change, negative = inhibition” value is inactive: 2.68%.

In the case of `Cc1cc(C)c2c(=O)cc(CSc3nnc(-c4ccccc4)n3C)[nH]c2c1`, the “activity change, negative = inhibition” value is inactive: -13.5%.

Consider `COc1cc(-c2nnc(SCC(=O)Oc3ccccc3)o2)cc(OC)c1OC`, for which the “activity change, negative = inhibition” value is inactive: 1.06%.

`COc1ccc(OC)c(Nc2ncc3c(n2)CCN(Cc2cc(OC)c(OC)c(OC)c2)C3)c1`: the “activity change, negative = inhibition” value was inactive: 0%.

For the molecule `CCc1ccccc1Nc1ncnc2c1cnn2-c1ccc(Cl)cc1`, the “activity change, negative = inhibition” value is inactive: -0.155%.

Turning to `CSCCC(NS(=O)(=O)c1cccs1)C(=O)Nc1ccc(C)c(Cl)c1` (stereo not drawn), the “activity change, negative = inhibition” value was inactive: -2.37%.

For the molecule `CCOc1ccc(CCNC(=O)c2ccc(CS(=O)(=O)c3ccccc3C)o2)cc1OCC`, the “activity change, negative = inhibition” value is inactive: -7.07%.

Consider `CC(=O)c1ccc(NC(=O)CSc2nnc(NC(=O)Nc3ccccc3)s2)cc1`, for which the “activity change, negative = inhibition” value was inactive: 3.1%.

Turning to `COc1ccc(Cl)cc1NC(=O)c1ncn(-c2ccccc2)n1`, the “activity change, negative = inhibition” value is inactive: -18.7%.

`COc1ccc(OC)c(NC(=O)Cc2c(C)n(C(=O)c3ccc(Cl)cc3)c3ccc(OC)cc23)c1`: the “activity change, negative = inhibition” value is inactive: -1.45%.

With `CC(=O)c1cccc(NC(=O)CN2C(=O)c3cccnc3Sc3ccccc32)c1`, the “activity change, negative = inhibition” value was inactive: 10.9%.

In the case of `Cc1ccc(C)c(Cn2c(=O)n(Cc3ccco3)c(=O)c3oc4ccccc4c32)c1`, the “activity change, negative = inhibition” value was inactive: -5.04%.

As to `CCc1ccccc1NC(=O)c1sc2nc3n(c(=O)c2c1C)CCC3`, the “activity change, negative = inhibition” value was inactive: -19.6%.

Regarding `COc1cc(CN(C(=O)c2ccc(OC(C)C)cc2)C2CCS(=O)(=O)C2)cc(OC)c1OC` (stereo not drawn), the “activity change, negative = inhibition” value is inactive: 2.08%.

For `Cc1ccccc1OCc1ccc(-c2nc(C#N)c(N3CCN(c4ccccc4)CC3)o2)o1`, the “activity change, negative = inhibition” value is inactive: -1.07%.

For the molecule `O=C(NCCCc1nc2ccccc2n1Cc1ccccc1)C1CCCCC1`, the “activity change, negative = inhibition” value is inactive: 3.56%.

With `CCOc1ccc(CNC(=O)c2ccc(NC(=O)N3CCSc4ncccc43)cc2)cc1OC`, the “activity change, negative = inhibition” value is inactive: -11.2%.

With `COc1cccc(Cn2c(C)c(CNCc3ccccc3Cl)c(C(=O)O)c2C)c1`, the “activity change, negative = inhibition” value is inactive: -2.52%.

With `CN(C)c1cc2c(cc1NC(=O)c1ccc(F)cc1)n(C)c(=O)n2C`, the “activity change, negative = inhibition” value was inactive: -12.9%.

In the case of `CCc1ccc(-c2cc(C)no2)cc1S(=O)(=O)Nc1ccc(C)cn1`, the “activity change, negative = inhibition” value was inactive: 4.99%.

Turning to `Cc1cccc(-c2nnn3c2nc(NCc2ccccc2)c2ccccc23)c1`, the “activity change, negative = inhibition” value was inactive: -3.06%.

On to `CNC(=O)C1CCN(Cc2cc3ccccc3n2Cc2cccc(C)c2)CC1`, for which the “activity change, negative = inhibition” value is inactive: 2.4%.

With `CC(C)CCNC(=O)C1CCN(S(=O)(=O)c2cccc3nsnc23)CC1`, the “activity change, negative = inhibition” value was inactive: -0.295%.

Turning to `O=C(C1CCC(Cn2c(=O)c3sccc3n(Cc3cccc(F)c3)c2=O)CC1)N1CCCCC1` (stereo not drawn), the “activity change, negative = inhibition” value was inactive: -1.61%.

Consider `O=C(NCCc1ccccc1)C(=O)NCC(c1cccnc1)N1CCN(c2ccccc2F)CC1` (stereo not drawn), for which the “activity change, negative = inhibition” value was inactive: 3.55%.

Consider `COc1ccccc1Nc1nn2c(=O)c3ccc(C(=O)NCc4ccc(F)cc4)cc3nc2s1`, for which the “activity change, negative = inhibition” value was inactive: -10.1%.

On to `COc1ccc(CCNC(=O)c2ccc(CS(=O)(=O)Cc3cccc(C)c3)o2)cc1OC`, for which the “activity change, negative = inhibition” value is inactive: 5.39%.

With `CCN1CCN(C(c2ccc(F)cc2)c2c(O)cc(C)n(CCOC)c2=O)CC1` (stereo not drawn), the “activity change, negative = inhibition” value was inactive: 3.65%.

Regarding `CCc1cccc2c(-c3ccc(F)cc3)nc(SCC(=O)Nc3ccccc3)nc12`, the “activity change, negative = inhibition” value is inactive: -2.64%.

On to `COc1ccc(C(=O)Nc2ccc(-c3cc4ccccc4oc3=O)c(C)c2)cc1OC`, for which the “activity change, negative = inhibition” value is inactive: -7.62%.

Turning to `CC(C)CCNC(=O)C1CCN(C(=O)N2CCOc3ccc(Cl)cc32)CC1`, the “activity change, negative = inhibition” value was inactive: 4.24%.

For the molecule `COc1ccc(-c2n[nH]c3c2C(c2ccc(O)cc2)N(c2ccc(Br)cc2)C3=O)cc1` (stereo not drawn), the Potency was active: 14.7 µM.

On to `CSc1cccc(NC(=O)N2CCN(c3cc(-c4noc(C)n4)ccc3C)CC2)c1`, for which the “activity change, negative = inhibition” value was inactive: -12.2%.

For the molecule `COc1cc(C2CC(=O)N(c3ccccc3)C3=C2C(=O)OC3)cc(OC)c1OC` (stereo not drawn), the “activity change, negative = inhibition” value is inactive: -3.83%.

Regarding `CCOC(=O)c1c(C)[nH]c(C)c1S(=O)(=O)N1CCCC(C(=O)Nc2ccc(F)cc2F)C1` (stereo not drawn), the “activity change, negative = inhibition” value was inactive: -3.41%.

For `C=C(C)CSc1nc2sc3c(c2c(=O)n1-c1ccccc1)CCC(C)C3` (stereo not drawn), the “activity change, negative = inhibition” value was inactive: -5.34%.

For `CCOc1ccc(NC(=O)CSc2cn(CC(=O)N3CCCCCC3)c3ccccc23)cc1`, the “activity change, negative = inhibition” value was inactive: -9.12%.
